Results as given in PubChem BioAssay AID1745853 (National Center for Advancing Translational Sciences (NCATS), 2022).
This is one part of the list. Shown are side measurements of this screen, not its main read-out; they come without a call.

Legend:
Assay in all cases: Primary Screen for Target Class Profiling of Small Molecule Inhibitors of Methyltransferases
[1] = biological target: Glycine N-methyltransferase (Homo sapiens) (UniProt Q14749); settings: purified enzyme, MTase-Glo SAH luminescence; measured here: GNMT inhibition; at 40 µM; stronger effect = lower value
Procedure, shortened: (§1)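 Each enzyme was reacted with SAM and its substrate, with compounds tested once at 40 uM; SAH formed was read by MTase-Glo luminescence.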

[2] = biological target: Guanidinoacetate N-methyltransferase (Homo sapiens) (UniProt Q14353); settings: purified enzyme, MTase-Glo SAH luminescence; measured here: GAMT inhibition; at 40 µM; stronger effect = lower value
Procedure, shortened: as §1

[3] = biological target: Histamine N-methyltransferase (Homo sapiens) (UniProt P50135); settings: purified enzyme, MTase-Glo SAH luminescence; measured here: HNMT inhibition; at 40 µM; stronger effect = lower value
Procedure, shortened: as §1

[4] = biological target: Nicotinamide N-methyltransferase (Homo sapiens) (UniProt P40261); settings: purified enzyme, MTase-Glo SAH luminescence; measured here: NNMT inhibition; at 40 µM; stronger effect = lower value
Procedure, shortened: as §1

[5] = biological target: Phenylethanolamine N-methyltransferase (Homo sapiens) (UniProt P11086); settings: purified enzyme, MTase-Glo SAH luminescence; measured here: PNMT inhibition; at 40 µM; stronger effect = lower value
Procedure, shortened: as §1
On the % scale 0 is the no-effect control and ±100 the full control effect.

| Structure (SMILES) | activity change, negative = inhibition [1] [%] | activity change, negative = inhibition [2] [%] | activity change, negative = inhibition [3] [%] | activity change, negative = inhibition [4] [%] | activity change, negative = inhibition [5] [%] |
| --- | --- | --- | --- | --- | --- |
| CC(C)C1c2cccn2-c2ccccc2CN1C(=O)Nc1ccc(Cl)cc1 (stereo not given) | -4.87 | 0 | 1.86 | 3.64 | 2.1 |
| O=C(NCCc1ccccc1)N1Cc2ccccc2-n2cccc2C1c1cc(F)cc(F)c1 (stereo not given) | 13.2 | 0.391 | 7.88 | 7.68 | 11.5 |
| CC1=NOC2(CCN(Cc3cc(C)on3)C2)C1 (stereo not given) | -4.65 | -2.63 | -1.58 | -5.33 | 7.83 |
| Cc1cccc(NC(=O)N2Cc3ccccc3-n3cccc3C2c2ccccc2)c1 (stereo not given) | 7.1 | 0 | 7.39 | 8.4 | 5.05 |
| CCn1cc(CN2CCN(C(=O)COc3ccccc3)CC2)ccc1=O | -11.1 | -5.27 | -1.02 | -1.08 | -14 |
| O=c1[nH]c2ccccc2n1CCCN1CCC(n2c(=O)[nH]c3cc(Cl)ccc32)CC1 | -11.3 | 13.9 | -0.042 | -10.7 | 5.67 |
| C[N+](C)(C)CC(=O)O | 2.75 | 8.48 | 8.9 | -7.75 | -4.02 |
| COc1ccc(NC(=O)N2Cc3ccccc3-n3cccc3C2c2ccccc2Cl)cc1OC (stereo not given) | 2.08 | 0 | -1.34 | 0.307 | 3.21 |
| COc1ccc(CCNCc2ccc(OC)c3ccccc23)cc1 | 4.39 | 11.6 | -10.1 | -43 | -3.64 |
| CCC1c2cccn2-c2ccccc2CN1C(=O)Nc1ccc(Cl)cc1 (stereo not given) | 2.11 | 0.356 | 3.81 | 2.21 | 5.5 |
| C[C@@]12C[C@@H](c3ccoc3)OC(=O)C1CC[C@]1(C)[C@H]2[C@H]2C=C[C@]1(O)C(=O)O2 (stereo not given in full) | 4.07 | 5.68 | 5.59 | -7.93 | 6.41 |
| CCCN1CCC[C@@H]2Cc3nc(N)ncc3C[C@H]21 | -6.39 | 6.05 | 0.71 | -6.92 | 7.35 |
| CCOC(=O)c1cccc(NC(=O)N2Cc3ccccc3-n3cccc3C2CC)c1 (stereo not given) | 0.794 | 0.875 | 2.4 | 1.86 | 3.02 |
| O=C(N1CCOCC1)N1CCN(c2ccc(Cl)cc2)CC1 | -6.62 | -0.297 | 6.09 | -15.6 | 1.18 |
| Cc1ccc(NC(=O)N2Cc3ccccc3-n3cccc3C2c2ccccc2)c(C)c1 (stereo not given) | -0.66 | 0.645 | -2.01 | -3.31 | -3 |
| O=C(Nc1ccccc1F)N1Cc2ccccc2-n2cccc2C1c1cc(F)cc(F)c1 (stereo not given) | 9.94 | 2.37 | 7.36 | 11.7 | 10.4 |
| COc1ccc(NC(=O)N2Cc3ccccc3-n3cccc3C2c2cc(F)cc(F)c2)cc1 (stereo not given) | 14 | 0.233 | 12 | 0.586 | 9.27 |
| COc1ccc(C2c3cccn3-c3ccccc3CN2C(=O)Nc2cccc(C)c2C)cc1OC (stereo not given) | 4.59 | 0.259 | -1.06 | -2.76 | 2.39 |
| Cc1ccccc1-n1c(Cn2cnc3c(N)ncnc32)nc2cccc(C)c2c1=O | -6.6 | -6.14 | 0.783 | -22.6 | -2.52 |
| CN(N=O)c1ccc(O)c(O)c1 | -76 | -24 | -14.3 | -18.6 | -41 |
| CC(C)=CCC[C@]1(C)C=Cc2c(O)c3c(c(CC=C(C)C)c2O1)O[C@]12C(=C[C@@H]4CC1C(C)(C)O[C@@]2(C/C=C(/C)C(=O)O)C4=O)C3=O | -7.84 | – | -7.34 | – | – |

| Structure (SMILES) | activity change, negative = inhibition [1] [%] | activity change, negative = inhibition [2] [%] | activity change, negative = inhibition [3] [%] | activity change, negative = inhibition [4] [%] | activity change, negative = inhibition [5] [%] |
| --- | --- | --- | --- | --- | --- |
| CC(=O)c1ccc(NC(=O)OC[C@H]2C[C@@H]3CCN2C[C@@H]3c2cc(C3CCCC3)nc(-c3ccncc3)n2)cc1 | -13.1 | -2.54 | -14.1 | -45.8 | 1.5 |
| CC(Cc1ccc(O)cc1)NCC(O)c1cc(O)cc(O)c1 (stereo not given) | -5.09 | 1.51 | -13.6 | -6.81 | 3.59 |
| COc1ccc(C2c3cccn3-c3ccccc3CN2C(=O)NCc2ccc(C)cc2)cc1 (stereo not given) | 2.63 | 3.53 | -4.81 | -8.06 | -4.28 |
| CCOC(=O)CNC(=O)N1Cc2ccccc2-n2cccc2C1c1ccc(OC)c(OC)c1 (stereo not given) | 7.8 | 0.069 | 1.9 | 3.09 | 6.02 |
| C=C[C@H]1CN2CC[C@H]1C[C@@H]2[C@@H](O)c1ccnc2ccccc12 | -1.91 | -1.4 | 0.336 | -13.8 | -28.7 |
| Cn1cnc(CCN)c1 | 3.88 | 14.2 | -23 | -0.852 | 11 |
| CC(=O)O[C@H]1CC[C@H]2[C@@H]3CC[C@H]4CC(=O)C=C(C)[C@]4(C)[C@H]3CC[C@]12C | -22.1 | -5.73 | 0.778 | -28.1 | -2.34 |
| CCOc1ccc(NC(=O)N2Cc3ccccc3-n3cccc3C2c2ccc(F)cc2)cc1 (stereo not given) | -1.5 | 5.14 | 2.12 | 0.091 | 8.71 |
| CC(C)[C@H]1OC(=O)[C@H](Cc2ccccc2)N(C)C(=O)[C@@H](C(C)C)OC(=O)[C@H](Cc2ccccc2)N(C)C(=O)[C@@H](C(C)C)OC(=O)[C@H](Cc2ccccc2)N(C)C1=O | -4.23 | -7.91 | 8.26 | -22.4 | -15.8 |
| C[C@]12CC[C@H](O)C[C@H]1CC[C@@H]1[C@@H]2[C@H](O)C[C@]2(C)[C@@H](c3ccc(=O)oc3)CC[C@]12O | 1.27 | 6.52 | 5.04 | -5.26 | 5.53 |
| COC(=O)C1(C)CCC(=O)C2(C)c3c(O)cc(C(C)C)cc3C(O)C(OC(C)=O)C12 (stereo not given) | 4.93 | 4.57 | 10.6 | -6.48 | -0.978 |
| CCc1ccc(C2c3cccn3-c3ccccc3CN2C(=O)Nc2ccccc2C(=O)OC)cc1 (stereo not given) | 14.1 | 2.37 | 7.81 | 8.63 | 9.92 |
| CCc1ccccc1NC(=O)N1Cc2ccccc2-n2cccc2C1c1cccs1 (stereo not given) | -0.126 | 0 | 4.89 | 1.27 | 7.37 |
| CSc1ccc(-c2ccc(=O)n3c2[C@@H]2C[C@@H](CN(C(=O)Nc4cccc(F)c4)C2)C3)cc1 | -8.65 | -12.3 | -6.57 | -18.3 | -18.9 |
| C=CC/C=C\C/C=C\CCCCCCCc1cc(O)cc(O)c1 | -3.9 | 2.94 | 5.28 | -12.2 | -8.41 |
| CCOc1ccc(C2c3cccn3-c3ccccc3CN2C(=O)Nc2cccc(C(F)(F)F)c2)cc1 (stereo not given) | 0.804 | 1.95 | 10 | 5.7 | 8.07 |
| CCN1CCN(c2ccc(Cl)nn2)C(=O)C1 | -2.18 | -2.01 | -0.097 | -5.8 | 1.93 |
| CCc1ccc(C2c3cccn3-c3ccccc3CN2C(=O)NCc2cccc(OC)c2)cc1 (stereo not given) | 13 | 0 | 6.44 | 1.73 | 6.01 |
| COc1ccc(C2c3cccn3-c3ccccc3CN2C(=O)NCc2ccc(F)cc2)cc1OC (stereo not given) | 6.29 | -1 | -1.34 | -7.76 | -0.91 |
| CCc1ccccc1NC(=O)N1Cc2ccccc2-n2cccc2C1c1ccc(OC)cc1 (stereo not given) | 6.66 | 0 | 0.553 | 0.02 | 3.37 |
| Cn1nc(C2CCCCC2)cc1[C@H]1CN2CC[C@H]1C[C@@H]2CNC(=O)NCc1ccccc1 | 0.318 | -1.74 | -5.96 | -5.56 | 1.66 |

| Structure (SMILES) | activity change, negative = inhibition [1] [%] | activity change, negative = inhibition [2] [%] | activity change, negative = inhibition [3] [%] | activity change, negative = inhibition [4] [%] | activity change, negative = inhibition [5] [%] |
| --- | --- | --- | --- | --- | --- |
| Cc1ccc(C)c(NC(=O)N2Cc3ccccc3-n3cccc3C2c2ccccc2Cl)c1 (stereo not given) | 12.9 | 0 | 3.03 | 6.02 | 7.91 |
| CCOc1ccccc1NC(=O)N1Cc2ccccc2-n2cccc2C1c1ccc(N(C)C)cc1 (stereo not given) | 4.93 | 1.87 | -10.4 | -3.54 | 1.43 |
| COc1ccc(C)cc1NC(=O)N1Cc2ccccc2-n2cccc2C1c1ccc(F)cc1 (stereo not given) | -0.465 | 2.76 | 5.49 | -1.7 | 3.83 |
| CCCN(CCC)[C@@H]1CCc2ccc(O)cc2C1 | 8.65 | 15.4 | -22.5 | -4.24 | 2.65 |
| Clc1cnc(Oc2ccc(Oc3ncc(Cl)cc3Cl)cc2)c(Cl)c1 | -1.42 | 3.87 | 0.561 | -4.65 | 7.32 |
| CNCCc1ccc(O)c(O)c1 | -30.4 | 2.81 | -40.9 | -4.87 | 0.505 |
| CCc1ccc(NC(=O)N2Cc3ccccc3-n3cccc3C2c2cccc(C)c2)cc1 (stereo not given) | 12.2 | 0 | 4.04 | 6.26 | 6.25 |
| O=C(Nc1ccc(F)cc1F)N1Cc2ccccc2-n2cccc2C1c1ccc(F)cc1 (stereo not given) | -1.45 | 0 | 1.45 | -3.2 | 5.98 |
| CC(C)c1ccc(C2c3cccn3-c3ccccc3CN2C(=O)NCc2ccc(F)cc2)cc1 (stereo not given) | -5.16 | 4.05 | 4.28 | -4.36 | 0.008 |
| CC1c2cccn2-c2ccccc2CN1C(=O)Nc1ccc(Cl)cc1 (stereo not given) | 4.75 | -0.86 | 0.416 | -3.28 | 0.718 |
| C=C[C@H]1CN2CC[C@H]1C[C@H]2[C@H](O)c1ccnc2ccccc12 | – | 10.2 | – | -13.3 | -1.39 |
| CCC1c2cccn2-c2ccccc2CN1C(=O)Nc1cc(Cl)ccc1C (stereo not given) | 0.454 | 0 | 4.72 | 0.571 | 6.56 |
| CCOC(=O)c1cccc(NC(=O)N2Cc3ccccc3-n3cccc3C2c2cc(F)cc(F)c2)c1 (stereo not given) | -3.73 | 0 | 1.45 | 4.27 | 3.56 |
| CC(C)c1ccc(C2c3cccn3-c3ccccc3CN2C(=O)NCc2ccco2)cc1 (stereo not given) | -9.06 | 1.19 | -3.51 | -10.1 | -5.54 |
| O=C1NC2(CCN(Cc3ccccn3)C2)Oc2ccccc21 (stereo not given) | -10.2 | 1.1 | -0.15 | -5.71 | -35.6 |
| COc1ccc(NC(=O)N2Cc3ccccc3-n3cccc3C2c2cc(F)cc(F)c2)c(OC)c1 (stereo not given) | 13.9 | 0.185 | 8.14 | 4.14 | 8.54 |
| C/C=C(\C)C(=O)O[C@H]1CC2C(=C1C)[C@H]1OC(=O)[C@](C)(O)[C@]1(O)[C@H](OC(=O)CCC)C[C@@]2(C)OC(C)=O (stereo not given in full) | -0.418 | 9.63 | 1.98 | -6.75 | 4.23 |
| CN[C@@H]1C[C@@H](c2ccc(Cl)c(Cl)c2)c2ccccc21 | 4.03 | 7.91 | -17.8 | -18.1 | 2.78 |
| COc1ccc(NC(=O)N2Cc3ccccc3-n3cccc3C2c2ccccc2C)cc1 (stereo not given) | 5.86 | 0 | 5.34 | 4.05 | 5.04 |
| Cc1cc(C)cc(NC(=O)N2Cc3ccccc3-n3cccc3C2c2ccc(N(C)C)cc2)c1 (stereo not given) | -2.18 | 1.4 | -9.03 | -6.57 | -5.38 |
